Data taken from PubChem BioAssay AID1963834 (Molecular Pharmacology Branch, DTP, NCI, 2024).
Not every entry of the source has a single result; some have several. They are shown here; other results are not. There may be further records. Values that stand side by side are repeated measurements across runs, samples, wells, individuals or studies. Marks such as (2×) give the number of equal values in this list.

System: 873145-292-R-J1-PDC complex spheroid viability
Assay: Anticancer human tumor 873145-292-R-J1-PDC patient-derived renal clear cell carcinoma cell line growth inhibition [POLQ]
Conditions: stronger effect = lower value
Description: Multicellular complex tumor spheroid response to Polymerase (POL) inhibitors (novobiocin, ART-558, RP6685) in combination with a variety of drugs and investigational agents in selected tumor cell lines
The POL inhibitors (novobiocin, ART-558, and RP6685) were evaluated both individually and in combination with standard of care and investigational anticancer small molecules within a complex spheroid model of solid tumors. . Complex spheroids include a stromal component modeled by human endothelial cells (HUVEC) and fibroblasts modeled by human mesenchymal stem cells (MSCs). The concentration ranges selected for each drug and investigational agent were based upon clinically achievable concentrations if the clinical Cmax of the agent was known.
Compounds. […] If the clinical Cmax for an agent had not been determined, the highest concentration tested was 10 microM, except for SN-38, which was tested at a high concentration of 1 microM. […]
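Note: luminescence signal used as surrogate for viable cell content; spheroids exposed to compounds for 7 days before viability readout; 100% = DMSO vehicle control viability.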

Row | Structure (SMILES) | viability, T/C (compound alone 0.0316 µM) | viability, T/C (compound alone 0.1 µM)
1 | Nc1ccc(C#CCN(C(=O)Cc2ncc(C(F)(F)F)cc2C(F)(F)F)c2ccc(F)cc2)nn1 | 88.2, 96.7, 86.8, 99.6, 93.8, 93, 92.2, 99.2, 91.5, 96.1, 86.3, 78.4, 71.4% | –
2 | COC1C(OC(N)=O)C(O)C(Oc2ccc3c(O)c(NC(=O)c4ccc(O)c(CC=C(C)C)c4)c(=O)oc3c2C)OC1(C)C (configuration not stated) | – | 100, 94.4, 98.6, 91.8, 87.9, 103 (2×), 97.6, 108, 92.5, 114, 104%
